Target: Mtb DnaK with and without cofactors (Mycobacterium tuberculosis, UniProt P9WMJ9)
Format: biochemical
Conditions: for inhibition of ATPase activation: 50 μM compound, equimolar DnaK:GrpE, sub-stoichiometric DnaJ2

Chain of UniProt P9WMJ9 (P9WMJ9 whole entry): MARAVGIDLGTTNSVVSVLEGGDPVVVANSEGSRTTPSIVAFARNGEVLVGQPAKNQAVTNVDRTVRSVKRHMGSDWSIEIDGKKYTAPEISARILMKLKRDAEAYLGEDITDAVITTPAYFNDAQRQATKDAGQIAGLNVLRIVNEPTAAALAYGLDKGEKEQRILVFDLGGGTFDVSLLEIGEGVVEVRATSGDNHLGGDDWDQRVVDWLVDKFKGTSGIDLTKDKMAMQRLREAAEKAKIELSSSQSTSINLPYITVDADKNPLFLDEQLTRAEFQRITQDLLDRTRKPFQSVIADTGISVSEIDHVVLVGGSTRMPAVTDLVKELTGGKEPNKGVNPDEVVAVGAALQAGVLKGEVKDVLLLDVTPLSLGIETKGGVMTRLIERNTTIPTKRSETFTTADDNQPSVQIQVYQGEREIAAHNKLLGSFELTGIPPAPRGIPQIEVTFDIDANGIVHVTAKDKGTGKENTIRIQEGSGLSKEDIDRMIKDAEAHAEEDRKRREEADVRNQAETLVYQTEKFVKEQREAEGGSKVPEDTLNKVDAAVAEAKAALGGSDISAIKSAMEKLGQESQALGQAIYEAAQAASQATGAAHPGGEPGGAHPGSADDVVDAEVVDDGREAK

## CNC(=O)[C@H]1O[C@@H](n2cnc3c(NCc4ccc(N)cc4)ncnc32)[C@H](O)[C@@H]1O [AB-MECA]
  inhibition of ATPase activation: only MECA showed inhibition

## CNC(=O)[C@H]1O[C@@H](n2cnc3c(NCc4cccc(I)c4)nc(Cl)nc32)[C@H](O)[C@@H]1O [MECA, 2Cl-IB-MECA]
  inhibition of ATPase activation: showed inhibition

## CCC[C@H](NC(=O)[C@@H]1[C@H]2CCC[C@H]2CN1C(=O)[C@@H](NC(=O)[C@@H](NC(=O)c1cnccn1)C1CCCCC1)C(C)(C)C)C(=O)C(=O)NC1CC1 [TP, Telaprevir]
HPLC, TP added
  ADP level in DnaK and cofactor reactions: returned the level of ADP to that of reactions containing DnaK only
  ADP level in DnaK only reactions: did not significantly change the level of ADP produced

## N#Cc1ccc(COC[C@H]2O[C@@H](n3c(NCc4ccc(Cl)c(Cl)c4)nc4c(N)ncnc43)[C@H](O)[C@@H]2O)cc1 [VER-155008]
  inhibition of ATPase activation: only MECA showed inhibition
